Reference: patent US20240409609A1, “REVERSIBLE LYSINE COVALENT MODIFIERS OF EGFR AND USES THEREOF” (Terremoto Biosciences, Inc., priority 2021, published 2024)

Columns and labels:
[1] = biological target: EGFR T790M C797S L858R in Ba/F3 cells (Homo sapiens (Human), UniProt P00533, C797S/L858R/T790M); test: Ba/F3 pEGFR assay (AlphaLISA p-EGFR Tyr1068); type: cell-based; conditions: 2 hrs treatment
Experimental: (§1) Cellular activity was determined using the Ba/F3 system for studying oncogenic mutant kinases (Warmuth 2007). […] Transduced cells were maintained in RPMI 1640 with 10% FBS. EGFR WT transduced cells were grown in media supplemented with EGF. To assay cellular activity of inhibitors, cells were treated with inhibitor from 1000X DMSO stock dilutions and incubated for 2 hrs at 37° C. 5% CO2. Subsequently, p-EGFR (Tyr1068) was quantified using a commercial sandwich immunoassay (PerkinElmer AlphaLISA SureFire assay; ALSU-PEGFR) according to the manufacturer's instructions. […] Curr Opin Oncol 19, 55-60 (2007), which is incorporated herein in its entirety.

[2] = biological target: EGFR del746-750 T790M C797S in Ba/F3 cells (Homo sapiens (Human), UniProt P00533, C797S/DEL746-750/T790M); test: Ba/F3 pEGFR assay (AlphaLISA p-EGFR Tyr1068); type: cell-based; conditions: 2 hrs treatment; read-out: pEGFR Ba/F3 del19/T790M/C797S IC50
Experimental: as §1

[3] = biological target: EGFR (d746-750) T790M C797S (Homo sapiens (Human), UniProt P00533, C797S/DEL746-750/T790M); test: EGFR biochemical assay (AssayQuant chelation-enhanced fluorescence); conditions: read-out: AssayQuant EGFR del19/TM/CS IC50; 30 min preincubation, reaction time 150 min
[4] = biological target: EGFR L858R/T790M/C797S (Homo sapiens (Human), UniProt P00533, C797S/L858R/T790M); test: as above; conditions: read-out: AssayQuant EGFR LR/TM/CS IC50; 30 min preincubation, reaction time 150 min

| Structure (SMILES) | IC50 [1] [nM] | IC50 [2] [nM] | IC50 [3] [nM] | IC50 [4] [nM] |
| --- | --- | --- | --- | --- |
| CN1CCN(Cc2ccc3[nH]/c(=N\C(=O)c4ccnc(C#Cc5ccc(F)c(O)c5C=O)c4)n(CC(C)(C)O)c3c2)CC1 [Compound 72] | 5170 | 1420 | 2.48 | 1.11 |
| CN1CCN(Cc2ccc3[nH]/c(=N\C(=O)c4ccnc(C#Cc5cccc(N)c5C=O)c4)n(CC(C)(C)O)c3c2)CC1 [Compound 99] | 229 | 99.6 | 31.6 | 17.9 |
| CN1CCN(C(=O)c2ccc3[nH]/c(=N\C(=O)c4ccnc(Oc5cccc(O)c5C=O)c4)n(CC(C)(C)O)c3c2)CC1 [Compound 71] | 320 | 400 | 10 | 1.08 |
| CN1CCN(Cc2ccc3[nH]/c(=N\C(=O)c4ccc(F)c(Oc5cccc(O)c5C=O)c4)n(CC(C)(C)O)c3c2)CC1 [Compound 110] | 40.6 | 43.4 | 1.2 | 0.119 |
| CC(=O)Nc1cccc(C#Cc2cc(C(=O)/N=c3\[nH]c4ccc(CN5CCN(C)CC5)cc4n3CC(C)(C)O)ccn2)c1C=O [Compound 90] | 158 | 48.2 | 5.64 | 6.47 |
| CC(C)(O)Cn1/c(=N/C(=O)c2ccnc(Oc3cccc(O)c3C=O)c2)[nH]c2ccc(N3CCC(C(C)(C)O)CC3)cc21 [Compound 70] | 153 | 290 | 6.82 | 0.972 |
| CN1CCN(Cc2ccc3[nH]/c(=N\C(=O)c4ccnc(Oc5cccc(O)c5C=O)c4F)n(CC(C)(C)O)c3c2)CC1 [Compound 82] | 231 | 895 | 102 | 2.52 |
| CC(=O)Nc1cccc(C#Cc2cc(C(=O)/N=c3\[nH]c4ccc(CN5CCN(C)CC5)cc4n3CC(C)(C)O)cc(C)n2)c1C=O [Compound 97] | 1160 | 709 | 29.1 | 13.8 |
| COCCN1CCN(Cc2ccc3[nH]/c(=N\C(=O)c4ccnc(Oc5cccc(O)c5C=O)c4)n(CC(C)(C)O)c3c2)CC1 [Compound 75] | 161 | 212 | 10.1 | 1.19 |
| Cc1cc(C(=O)/N=c2\[nH]c3ccc(CN4CCN(C)CC4)cc3n2CC(C)(C)O)cc(-n2cc(-c3cccc(O)c3C=O)cn2)n1 [Compound 102] | > 10000 | 6900 | 13.8 | 28.5 |
| CN1CCN(Cc2ccc3[nH]/c(=N\C(=O)c4cc(Cl)nc(Cc5cccc(O)c5C=O)c4)n(CC(C)(C)O)c3c2)CC1 [Compound 86] | 765 | 1040 | 13 | 3.84 |
| CN1CCN(Cc2ccc3[nH]/c(=N\C(=O)c4ccnc(C#Cc5cncc(O)c5C=O)c4)n(CC(C)(C)O)c3c2)CC1 [Compound 100] | > 10000 | > 10000 | 73.7 | 18.1 |
| CN1CCN(Cc2ccc3[nH]/c(=N\C(=O)c4cccc(Oc5cccc(O)c5C=O)n4)n(CC(C)(C)O)c3c2)CC1 [Compound 93] | 158 | 1170 | 356 | 8.07 |
| O=Cc1c(O)cccc1Oc1cc(C(=O)/N=c2\[nH]c3ccccc3n2CCN2CCOCC2)ccn1 [Compound 123] | 3800 | > 10000 | 116 | 7.42 |
| CN1CCN(Cc2ccc3[nH]/c(=N\C(=O)c4cc(Oc5cccc(O)c5C=O)c5sccc5c4)n(CC(C)(C)O)c3c2)CC1 [Compound 107] | 1220 | 1270 | 1.8 | 0.904 |
| CN1CCN(Cc2ccc3[nH]/c(=N\C(=O)c4cc(C=O)nc(Oc5cccc(O)c5C=O)c4)n(CC(C)(C)O)c3c2)CC1 [Compound 81] | 4940 | 7400 | 3.9 | 1.61 |
| CN1CCN(Cc2ccc3[nH]/c(=N\C(=O)c4ccnc(C#Cc5cc(F)cc(O)c5C=O)c4)n(CC(C)(C)O)c3c2)CC1 [Compound 89] | 3900 | 1560 | 6.82 | 6.01 |
| CC(C)(O)Cn1/c(=N/C(=O)c2ccnc(Oc3cccc(O)c3C=O)c2)[nH]c2ccc(N3CCOCC3)cc21 [Compound 74] | 135 | 162 | 6.22 | 1.16 |
| CN1CCN(Cc2ccc3[nH]/c(=N\C(=O)c4ccnc(Oc5ccc(F)c(O)c5C=O)c4)n(CC(C)(C)O)c3c2)CC1 [Compound 77] | 673 | 462 | 3.87 | 1.3 |
